# Results: ChEMBL document CHEMBL4888484, “Replenishing the malaria drug discovery pipeline: Screening and hit evaluation of the MMV Hit Generation Library 1 (HGL1) against asexual blood stage Plasmodium falciparum ,using a nano luciferase reporter read-out” (2022)
# Screen size: about 150,000 compounds; about 540 (0.36%) showed an effect of 50% or more. The list shows a part of the results.
# Tested on: Plasmodium falciparum
# Assay: Primary screen in NF54 nanoGlo assay, in single point, at 2uM, 72h; a lower Z score goes with more inhibition
# Format: functional, Erythrocyte
# Conditions: timepoint 72 hour
SMILES,% Inhibition [%],Z score
CC(C)[C@H](CNC(=O)N1CCN(C(=O)C(C)(C)C)CC1)Cc1ccccc1,5,-0.64
COc1ccc(CNc2ccncc2F)cc1OCc1ccccc1,-2,0.19
O=S(=O)(c1ccccc1F)N1CCC2(CC1)CC2(F)F,10,-1.24
N#Cc1cccc(N2CCN(C(=O)Cn3ccnc3)C[C@H](O)C2)n1,19,-2.51
CCCn1nccc1C(=O)N1CC[C@]23C(=O)N(CC(=O)NCCCOc4cccc(c4)[C@H]12)c1ccccc13,-6,1.22
O=C1CC[C@H](C(=O)Nc2ccccc2C(=O)NCc2ccccn2)N1,-11,1.22
CC(C)(C)C(=O)NCCNC(=O)c1ccccn1,38,-1.17
O=C(CCn1cnc2ccccc2c1=O)N1CC(c2nc(-c3cnccn3)no2)C1,-3,0.48
Cc1cc(C)c2c(=O)n(CC(=O)N3CCC[C@H](C)C3)c(=O)n(-c3ccccc3)c2n1,-4,0.47
N#Cc1cnc2ccc(F)cc2c1N1CCC(C(=O)Nc2ccc3c(c2)OCCO3)CC1,-2,0.31
CC(C)(C)NC(=O)c1ccccc1NC(=O)[C@H]1CC(=O)N(CCc2c[nH]c3ccc(F)cc23)C1,3,-0.56
COc1ccc(CNC(=O)Cn2c(=O)n(Cc3cccc(Cl)c3)c(=O)c3ccccc32)cc1OC,29,-3.27
O=C(Nc1ccccc1C(F)(F)F)N(CCN1CCCCC1)C1CCOCC1,-3,0.47
COc1ccc(Oc2nc(N3CCCCC3)nc3c2CN(Cc2cc(OC)cc(OC)c2)CC3)cc1,-22,2.14
CC(C)(C)C(=O)NC[C@H]1CCCN(Cc2ccnc3ccccc23)C1,2,-0.42
c1ccc([C@@H]2CN(C3CC3)CC3(CCN(Cc4ccccn4)CC3)C2)cc1,-10,1.74
O=c1ccc(-c2ccccc2)nn1CN1CCCCCC1,-16,1.99
C[C@H]1CCCN1S(=O)(=O)Nc1ccc(-n2ncn(C)c2=O)cc1,-13,2.41
O=C(COc1ccc(S(=O)(=O)N2CCCCC2)cc1)NC1CCCCC1,-9,1.29
COc1cccc(S(=O)(=O)N2CCC(n3c(C4CC4)nn(C)c3=O)CC2)c1,3,-0.42
CCOc1ccccc1CNC(=O)[C@@H](C)C1CCN(C(=O)c2cc3ccccc3[nH]2)CC1,19,-1.78

SMILES,% Inhibition [%],Z score
O=C1[C@@H](OC2CCN(Cc3cc(F)ccc3F)CC2)CCN1C1CCCC1,-15,2.49
O=C(c1ccc(S(=O)(=O)c2cccc(F)c2)cn1)N1CCNCC1,-19,2.53
Cc1cnc(NC(=O)c2cn[nH]c2C)[nH]1,2,-0.17
O=S(=O)(CCN1CCc2sccc2C1)Cc1ccccc1,-7,0.7
Cc1nc2cc(C(=O)N3CCC(N4CCc5ccccc5C4)CC3)ccc2s1,0,-0.07
COc1ccc(CN2C(=O)N[C@@H](CC(=O)N[C@H](CO)Cc3ccccc3)C2=O)cc1,-14,1.83
CN1CCN(c2cc(-c3ccccc3C(=O)O)nc(N)n2)CC1,-7,1.29
O=C(NCc1cn[nH]c1)Nc1ccccn1,-3,0.66
CCN(CC)CCNC1=Nc2ccccc2CCC1,10,-1.57
Cc1cc2ncn([C@@H](C)c3nc(-c4ccnn4C)cs3)c2cc1C,-11,2.13
O=C(NC[C@H](OCCO)c1cccs1)c1ccsc1,-3,0.51
O=C(Nc1cn[nH]c1)C(=O)Nc1ccc(F)cc1Cl,-1,0.15
CCOc1ccc(NC(=O)Cn2cnc3c(-c4cccc(OC)c4)cn(C)c3c2=O)cc1,40,-5.73
CC[C@]1(C(=O)O)CCCN(C(=O)CC2CCCC2)C1,-6,1.07
Cc1ccccc1C1CC1NC(=O)c1cccc(-n2c(C)c[nH]c2=O)c1 (stereo unspecified),-7,0.96
C[C@H](NCCn1cccn1)c1ccc(-c2cccnc2)cc1,-4,0.62
COc1ccc(NC(=O)[C@H](C(C)C)N(Cc2ccc(C)cc2)C(=O)Cn2nnc3ccccc32)c(OC)c1,14,-1.72
CC[C@@H](CC#N)NC(=O)c1ccoc1Cl,-8,1.12
CC(C)NC(=O)N1C[C@H](c2nc(-c3ccc(F)cc3)no2)C2(CCOCC2)C1,-4,0.83
O=C(Cn1c(-c2cccs2)cc2ccccc21)N1CCOCC1,2,-0.24
Cc1nn(C)c2nc(-c3ccccn3)nc(N(C)CCc3ccccn3)c12,1,-0.22

SMILES,% Inhibition [%],Z score
CCCCn1ncc(NC(=O)N2CCC[C@@]23CCNC3)c1C(C)C,5,-0.61
Cc1cnc(N2C[C@H](OC(C)C)[C@@H](O)C2)nc1N(C)C,-5,0.46
CC1(C)CN(Cc2ccc(F)cc2)CCN1C(=O)Cn1ncnn1,-13,2.15
COCCOCc1nc([C@H]2CCN(S(=O)(=O)c3cccc4nsnc34)C2)no1,-7,1.39
CN1C[C@]2(CCN(c3nnc(C4CCC4)o3)C2)OC1=O,-25,2.46
CC(=O)N1CCn2c(nnc2[C@@H]2CCCN2Cc2ccccc2)C1,-25,3.5
O=C(NC1CCC(C(=O)NCCc2cccc(O)c2)C1)OCc1ccccc1 (stereo unspecified),-3,0.69
CC(C)c1noc(-c2ccc(N(C)CCC3(O)CCCC3)nc2)n1,-7,0.76
CN(C)CCN(CCO)C(=O)c1cc(-n2cccn2)ccc1Cl,-7,1.39
CCCN1Cc2cccc(NS(=O)(=O)c3cnc4n3CCC4)c2C1,-5,0.73
CCc1ccc(CNCCN2CCC[C@H](CO)C2)nc1,-5,0.93
Cc1ccncc1NCc1cnnn1C,-9,0.86
Cc1oc(-c2ccc(C(=O)NCc3ccccc3F)cc2)nc1CN1CCc2ccccc21,-9,1.37
CCc1nc2cc(-c3noc(-c4ccc(CS(=O)(=O)c5ccccc5)cc4)n3)ccc2o1,-9,0.86
CCCCc1nc(C)sc1C(=O)Nc1nc[nH]n1,0,0.04
COc1ccccc1OCC(=O)Nc1cc(C)nn1-c1nc2c(cnn2-c2cccc(C)c2)c(=O)[nH]1,2,-0.31
CCOC(=O)C1CCCN(CC(=O)NC2CCCCNC2=O)C1 (stereo unspecified),3,-0.31
CC(C)Cn1c(C[C@H]2CCN(C(=O)c3n[nH]c4ccccc34)C2)nc2cccnc21,1,-0.1
CC1CC1C(=O)NC(Cc1nccn1C)c1ccccc1 (stereo unspecified),-11,2.17
CCOc1ccccc1CNc1nc(-c2cccc(OC)c2)no1,-13,1.17
Cc1n[nH]c([C@@H]2CN(C(=O)c3ccc4ncccc4c3)C[C@H]2C(N)=O)n1,0,0.07

SMILES,% Inhibition [%],Z score
CCOC1CC(NC(=O)CS(=O)(=O)C2CCCC2)C12CCCC2 (stereo unspecified),4,-0.36
CN1CC[C@H]2CC[C@@H](C1)N2C(=O)CCOc1ccccc1,-8,1.39
Cc1cc(OC2CCN(C(=O)c3ccc[n+]([O-])c3)CC2)nc(C)n1,-6,1.06
Cc1cc(Cl)cc2c1NC(=O)[C@H]1CCCN1C2=O,-11,2.02
Cc1ccc(OC2CCN(Cc3ccncc3)CC2)c(C(=O)N2C[C@H]3CC[C@H]2C3)c1,9,-1.19
O=C(CN1CCCC1)Nc1ccc(N2CCn3c(nc4ccccc43)C2)cc1,37,-1.11
COC[C@H]1CCN(C(=O)c2coc(COc3cccc(C(F)(F)F)c3)n2)C1,-15,1.8
CCC(CC)C(NC(=O)N1C[C@@H](c2nnc(C)o2)O[C@@H](C)C1)c1cccs1 (stereo partly specified),-4,0.68
CCc1cnc(N[C@H]2[C@H]3CCO[C@H]3[C@H]2COC)nc1,-9,1.5
Cc1nn(C)c2nc(NC[C@H]3CN(S(C)(=O)=O)CCO3)sc12,17,-2.18
c1ccc(-c2ncc(CNCCn3cccn3)s2)cc1,-13,1.71
CC(C)c1nc([C@H](C)n2ccnc2C(C)C)n(-c2ccccn2)n1,-6,0.93
Cc1ccccc1NC(=O)N[C@@H]1CNC(=O)C1,-3,0.38
Fc1ccc2oc(N3CCCO3)nc2c1,-15,1.31
C#CCN1CCC(C(=O)N2CCCC3CCCC32)CC1 (stereo unspecified),-9,0.92
Cc1nnsc1C(=O)Nc1ccc2cc[nH]c2c1,1,-0.18
O=S1(=O)C[C@@H]2[C@H](C1)N(Cc1ccccc1)CCN2Cc1ccc(CO)o1,-8,1.13
CCC(=O)N(Cc1cccc(C)c1)c1ccc(CC(=O)NCc2ccccc2)cc1,-7,0.88
O=C1NC(c2ccccc2)(C(F)(F)F)C(=O)N1C1CCCCC1O (stereo unspecified),5,-0.59
Cc1ccccc1CNC(=O)CN1CCC(N(C)CC(=O)NCc2ccccc2C)CC1,-6,0.54
